# From the supplement of paper PMC10681739
# ± gives the standard deviation of the averaged measurements. Over roughly 4,000 sequences, “arbitrary fluorescence units” has its median near 830; the highest 2% begin near 6,500. The list lacks most of the strong results.
# Biological target: RUNX1 (UniProt Q01196)
# Experiment: RUNX1 binding intensity (PBM fluorescence), RUNX1 alone (arbitrary fluorescence units); higher = stronger binding
# Conditions: RUNX1 concentration 2 nM; ETS1 concentration 0 nM
# Method: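 gcPBM on 36-bp genomic-derived probes (partner site mutated) containing one RUNX1 site and no ETS1 site. Recombinant human RUNX1 (2 nM) was incubated alone or with ETS1 (25 nM) and detected by anti-RUNX1 antibody fluorescence. Values are medians over 4 replicate spots (not normalised). The probes sit in constant array flanks that are not printed.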
# 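Also: Full-length recombinant human RUNX1 bound to double-stranded DNA microarray spots, detected with an Alexa488-labelled secondary antibody after the anti-RUNX1 primary, read as scanned spot fluorescence.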
# Sequence of UniProt Q01196 (Q01196 whole entry): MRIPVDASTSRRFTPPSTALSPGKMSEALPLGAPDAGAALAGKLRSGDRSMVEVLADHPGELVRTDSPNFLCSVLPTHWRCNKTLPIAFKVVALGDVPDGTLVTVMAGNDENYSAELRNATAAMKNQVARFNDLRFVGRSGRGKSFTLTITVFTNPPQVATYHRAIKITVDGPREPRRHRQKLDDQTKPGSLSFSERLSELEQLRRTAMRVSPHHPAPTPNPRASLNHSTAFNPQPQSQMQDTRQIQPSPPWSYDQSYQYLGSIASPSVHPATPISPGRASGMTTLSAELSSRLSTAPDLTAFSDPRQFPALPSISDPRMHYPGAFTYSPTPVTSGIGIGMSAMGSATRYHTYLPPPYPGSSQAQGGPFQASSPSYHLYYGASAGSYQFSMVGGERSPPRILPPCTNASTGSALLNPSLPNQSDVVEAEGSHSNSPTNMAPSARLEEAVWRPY
row,Sequence,RUNX1 binding intensity
1,GTGGAGGAACCGCGAGCCGCCTTGCTCCCCGGCCCA,783
2,GCCCGAGGTTCGGGTCCATGGACCGCGGGCGCCGAG,665
3,CGCCGAATGCATAAAAGACTGGCTGCGGTGGCTCAG,771
4,GACTCTTGTGGTTGCACCGCGCTCCCTGCCAGCTTG,1940
5,CTGTGCGGTCATGTGACGGAGGCCTGAAGGCAGGTC,1410
6,TACCACCTCAGCATGTCTGAACCACATGCAAGCAGG,715
7,TACTTCTTCATGGCAGAGACCGGGAGTGCGGTCCGC,781
8,TAAAATTGCGGGAGGGGACTTGGTCCTTCATGTTGC,849
9,GAGGCCGCAGAAAGGCCTGAGATGCAGCAAGCAGCT,687
10,AACATTACGGAGGTTTCTCTACCCATGCGGTGTCTC,958
11,ACACCGCTCATGAAGACAAAGCCACACCTCACACCA,1270
12,AAGGCTGACGAAGGGAAAATTGTGGTTGGGCAGAGG,995
13,GTACGTCTCCTCATTGACTGGCCAACCACTATCATG,950
14,TTGTGGTTGCCGGGGATCGCTGTTGCCAGCCTGACT,738
15,GTGAGCCACAAGGGCCCCTGGGTCCTTGCTCCAAAC,641 ± 9.1
16,ATAAAGAAAACCACTAACCAGTAACATACGGCTCAG,1040
17,GTGACTCCGCGGTGTACAGCTGCCTTCACCCCACTT,976
18,CGTGTGTGGGGGCGCAAGGCAGCGGCAGCTTCGGCC,853
19,CTGAGCCGTATGTTACTGGTTAGTGGTTTTCTTTAT,972
20,CTGAGCAGTGTGGTTGGCCCTCACCTCCTCATCGGC,866
21,TAATTTTTTTTAACCACTTCCAGGAGATCTTGCCCA,1080
22,TTGCGGTTGGCAGACAGCAGAGCAAAGGCAATTGGG,881
23,TGAAGTTGTGGGGTGTTTTTATCAGCAGCAAACAGC,751
24,AATGGCGGGAGGTAAGAGGAATGTGGGCCTGACTGC,701
25,TGGAACCATCACCCACAACCAGAGGAATCTGTCTGG,824
26,TTATCTGTGGTTCTTTTATGGGGTGGGCTGCCTCTG,1370
27,CGGGGCTTACGGCGCGCTGCCTTGTGGGCACGGTAG,703

row,Sequence,RUNX1 binding intensity
1,CACTCCCCTCCCGCGGTCACACTTCAGGCGGCCACC,1460
2,AGATGGTGTGGCTGGATGGGGACCACATTGAAGAGA,730
3,CTGTGGTTGGGCTGTGTAGGTGCGGATTGCCTGGCT,730
4,GCGAATCTGCGGCATCCAACATGGCGTATGGAGTCT,721
5,CTCTTGGCGGGCGTTCCACATTACCACTGACTTTGT,1070
6,CTAGGCAGTGTCTGTAGGCGCAGCTGCGGGTCCGGG,689
7,GTGTACGGCAGCTGAGAGGGCCCGCGGGTAGGCATG,686
8,GTAAGAACCACAACCCCTCGAGAGGCAGCACTTTTG,1020
9,CTCCACTCGCGGTTTCGTGCCTCCCTTCAGTGCCGA,2790
10,CCTACCGCGGAGAGAAGGCTCTTTATCTCCTAGCCG,893
11,ACGCCCGCTGACCACACTGGCGACGTCCCTCTCTGT,1400
12,AGCCCTAAACAACCGCTGAACCACTTGCTGTCACTG,989
13,CGATTCTGGATTGGTCCAGTTCCAGCGCCGCAGCCC,724
14,CGGGCCCGACGGACACCATGTTTGTGGCTCGCAGCA,705
15,AGGGACGAGGCAAGTCGTGGTGGTCGCGAGGGAGCC,673
16,CCCCTCAGCTCCCGGGTGCTGCGGCCGCGGCCGAGA,931
17,GCCCGGCTTACCCGCGTCGCGGAGGTCCGCTCTCTG,822
18,TCTGGACCCGCAGGCCGCTCAGATTCCCGGTGTCCA,829
19,GTGCGGTGTGCCTCGGGTCGGTGCACCGTCCTGGAT,720
20,TGGATTAACCGCTAAACATAGTTTACTGTTGTGTAA,1170
21,CTGTGCTGGCCAGCGGTGGGGATCCAGCATTCCTAT,703
22,TCCCCCACTTGCTGGCAGCAGCAGTGTGGTGAGGAG,746
23,CGACCTTGCGGGGCGGTGCAAGCTGGCAGAACCCGA,775
24,AGGCAGGGAGGTGGCGCAGAGGAGACCACAGGACAC,788
25,CAGGGGCCGCAGTCGCGCTCCTCGCGGCCGTAAGAG,705
26,GTCTTAAGCAAAGCCACACTTACTTTCTAAGCTGTT,952
27,GAGGCGACCCACCTCCGCTGTGCGGGGGCAACTGCA,710

row,Sequence,RUNX1 binding intensity
1,CCAAACGCTTGCCGGTACGTGTTGCTGCGGGAACCC,728
2,CAGCCCTCTTGCTGCCTGTCTGTGGCTGGTGAGGTT,855
3,CCAGCCACTTTCGCTCGTCCGCCTAATACCGCGCCT,1370
4,CCTGTGGTAATCCTTACCGTGGCGAGTGCCGCGCTC,797
5,GAATGGAACTGGGGGCTGGGCCGTGTGGGTTTGTGA,839
6,TCCTGGCTGCCCGCAAGGCCAGAAAGAGCGAAAACA,937
7,AGAGCGCGCCCTCCGTGACGCCGCAAGAGCGCGCCT,730
8,GGAGGAGTGGTTTCTGAGAGAAGGCAGCACCTGCCC,757
9,CCAGCATGTGGGCTCTGAACCTGAAGCAACAGGCTC,796
10,GAGGAGATTCCCGGCCCCCATCCCCGCAGCGACCTT,840
11,CGGGAGAGGAATCCAGGTTGGACAGAGGTGGTTTCA,714
12,ACCCCACCAACCGCCTCCACTTACGGCACCCACGAG,1450
13,TGGCGGCTGTGGGGATTTGCCTGAAGGTTAATAATG,713
14,TTTCTTACCACTAGGGGACGCTAGTTCCCTGAGGCT,905
15,CAGTTTATGCTGTGAGAGCCTTGTGGTTCCTACTAA,764
16,GCCTTCTGGGACATGTAGTTCCCCGTCACCGCGAAG,868
17,CACCCTCAACTTGCTGACCCATAAACCACAAGCTAT,4340
18,TCGGGCTGCGGTCCTACGGCAATTCCCGTGGGAGGA,847
19,AGCACAGCCCGCAGCCATGGGTTCAGCCGTAAGCCC,846
20,CAGCTCCCGGGCTAATTAGCAGTCGCGGTGTGCCGC,766
21,TCACTGTGGTATCTGGAAGCAAAAGGCAATGTGCTC,811
22,CCGGGGTAAACCACGACACGACTCCCTGCCGTGTGG,886
23,GCCCTGCGGGCCCCGTTCCCGCCATTCCTTCATGCC,1370
24,TCCGAAAGTCGGAGGAACACCCCAGCCGCCGCAGCC,747
25,GCACTGCGGGTCGGACATAGTGACGCACTTTCGCCC,718
26,CCACCTCCTTCGGACGCCGCCCGCAACTGAGCATGC,1040
